Experimental data from publication PMC12136788.
The list shows a part of the results.

B1: chr3:176767854:176767855:-_ENSG00000177565_ENST00000430069|hu_hu|hu_hu_hu_mus_False|58_58 (ssRNA)
RNA: GGGAGUUCUACAGUCCGACGAUCGACAUCCUUGUUACUGGGCACGUCCUGCCCUCCUUCCCGUAUGCAGUGUCUAAGUACUAACUGCGUAGGGCCACUCGUGCUGUUCUCACUGAGGUUCCAGAUUCUUGCCGUGGAGUCUCCCAACAGAGGAUUGAGCAUCA
B2: chr21:30434530:30434531:-_ENSG00000156261_ENST00000286788|hu_mus|FALSE|FALSE (ssRNA)
RNA: GGGAGUUCUACAGUCCGACGAUCAUCAUCUACUGCCCUUUCUAUGUCAUCCAUCAGAUUGUCUGUAGAACCUCGAAGAACUAUAGUAGAAAUGGCACCAUCUUCUUUUUCAUGCUUAAAAACAACCACUUGUGUAUCUCCAACCAACAGAGGAUUGAGCAUCA
B3: chr14:78183846:78183847:+_ENSG00000119705_ENST00000557342|hu_hu|hu_hu_hu_mus_False|1_108 (ssRNA)
RNA: GGGAGUUCUACAGUCCGACGAUCUCUGUCUCAAAAAUCUUCAUCAGAUGUUUGAGCUCCGUGCAAAGCCUUUGCUCUUUGAGCUUGAACGUGGAUCUAUGGGAGGGAAAGCACUGUCAGAAAAGGUAAUUUUUUUUUCCGAAGCAACAGAGGAUUGAGCAUCA
B4: chr12:16048344:16048345:+_ENSG00000023734_ENST00000419869|hu_hu|hu_hu_hu_mus_True|1_98 (ssRNA)
RNA: GGGAGUUCUACAGUCCGACGAUCAGAUCGUCCAUAAGUUAUAACCAAAAUCUCUCCUUCAGGAAUAUACUCCAUGCUGCUAACAGACAUAUUAAAAUUCAGAGAUUUCACUUCUGUCAUUGUGGCAUGAUCCCAGAGUCGAACCAACAGAGGAUUGAGCAUCA
B5: chr2:37230337:37230338:-_ENSMUSG00000075376_ENSMUST00000100143|mus_mus|FALSE|FALSE (ssRNA)
RNA: GGGAGUUCUACAGUCCGACGAUCAAAUAGAAAUAAGUUAAUUAACUCUACUUUCACUAGAUGUAUCAUUGUAGGAUCCUGCUAGUUUAAUAACUGAGUUGUUAAUUUACUGUAGAAGCCAUUUAAAAUAGGAAAUGGCUCAGUCAACAGAGGAUUGAGCAUCA
B6: chr15:63762776:63762777:-_ENSMUSG00000022378_ENSMUST00000164532|mus_mus|FALSE|FALSE (ssRNA)
RNA: GGGAGUUCUACAGUCCGACGAUCAGUUAAUUUAAACAUUUCCAUUUUGGCUGCACAUGAAAAAGCGGCAGUAGAAAAUAAAUUUAUGAGGGUUUUAAAUAGCAGAAUAGGCAGUUUCGCCAUGCAGGAGAAGCAAUAUUAAAUCAACAGAGGAUUGAGCAUCA
B7: 126517571_126517691_1669_CDS_ENSMUSG00000025422_ENSMUST00000039259|mouse|control|control (ssRNA)
RNA: GGGAGUUCUACAGUCCGACGAUCCAUCUUGCGGUCACGAGUGGACGCUCGGCCGCCCUCCCGGCCCCUUUUCAGCCCUGGAGCUGGUGGCUCCAGAGUGAUAGGGGGUGCAGGCCCGAGGGGCUGCGUGGAGGUGGCAGUGACCAACAGAGGAUUGAGCAUCA
B8: chr11:29408400:29408401:+_ENSMUSG00000032740_ENSMUST00000040182|mus_hu|motif|central (ssRNA)
RNA: GGGAGUUCUACAGUCCGACGAUCAGUUAAAGCACAACAGCUUUAUCUUGGGAAUGCCAUUUGCUGAAAAACCAUCUUACGGAAAAAAAGUUUCAGAAAAACACUCUUUACCAUGGGUUAACUUAUGAAUGCUUAGUGUUGCUUCAACAGAGGAUUGAGCAUCA
B9: chr9:136895555:136895556:-_ENSG00000169925_ENST00000303407|hu_hu|FALSE|FALSE (ssRNA)
RNA: GGGAGUUCUACAGUCCGACGAUCGAGUACUUUCUACCAUUUUUAUUCUGUUGUGUUGAGGCCAGCAUUGCAAUAAACAAGCUAAACUACUUACAUUGGACUCAUUUUCAGUAACUGACAUUUACAGGAAUAUACUAGAAACGGCAACAGAGGAUUGAGCAUCA
B10: chrX:35985205:35985206:-_ENSMUSG00000048970_ENSMUST00000058265|mus_hu|FALSE|FALSE (ssRNA)
RNA: GGGAGUUCUACAGUCCGACGAUCAGGAGCUUGUAGGUGAUGAUGCUCAUGGUGGUGCAUUCUAUUUCCAUGACCAAUCCUAAUGUGUCCUAGCAUAGUGAUCAAAGCACAGAAAAUGCUUCCAAGCAUCACACCCUUCAAAAACAACAGAGGAUUGAGCAUCA
B11: 22471608_22471728_1187_CDS_ENSG00000158941_ENST00000389279|human|control|control (ssRNA)
RNA: GGGAGUUCUACAGUCCGACGAUCAUGGAGGGAAAAGGGCUGGCUCAGGGGGAAGGCUGAUAGCCAACUCAGAUGCACGGACAGAAAAUCUGAGGGGACCAGGAGGCUGCGGUAACGGCGCUGGAGUUCUAGGAAGUCACAGAUCAACAGAGGAUUGAGCAUCA
B12: chr7:44244176:44244177:+_ENSG00000106636_ENST00000223369|hu_mus|hu_hu_hu_mus_False|38_38 (ssRNA)
RNA: GGGAGUUCUACAGUCCGACGAUCACUGUCGCUCCGGACGUAGACAUGGCAAAGAUACUCUUGUUCUUUGACAGAAGCUCUGCUGCCUUUCCCCGAGCGCUCCACAAUCAGUUGACUUGUAAAGGUCAUGAAUUCCUGCACACUCAACAGAGGAUUGAGCAUCA
B13: chrX:20248820:20248821:+_ENSMUSG00000001924_ENSMUST00000001989|mus_mus|mus_mus_mus_hu_True|8_48 (ssRNA)
RNA: GGGAGUUCUACAGUCCGACGAUCGGCGAAGUCCGUCACCACAAAGUCAGGUUCUGCCAGUGAGGCCACCAAGGAUUUAAAGCUAAUCUUUUUCGGUACUUUGACCUGACUGACGAUGCCUCCACGGAUGUAGUCAGAGAAGUUCAACAGAGGAUUGAGCAUCA
B14: 147796766_147803679_1845_CDS_ENSG00000145868_ENST00000340253|human|control|control (ssRNA)
RNA: GGGAGUUCUACAGUCCGACGAUCUGCUUGUUCCUCAUCAACAUCCACAGGAAUAAUUGCCUGGCUGUGAGCUGGAGUAUUAUUUCCACUCUCGGCCACCACCUCUCCAUCUUCUUGGACGAUGUCUUCCAUCUCAUUUAAUGCCAACAGAGGAUUGAGCAUCA
B15: chr3:108394432:108394433:+_ENSMUSG00000040389_ENSMUST00000051145|mus_mus|FALSE|FALSE (ssRNA)
RNA: GGGAGUUCUACAGUCCGACGAUCAGGAAAACGCGGAGGAGAGGCCGGCGGCCAGAGCCCCGAGACAGCCAAUUCCAGUCUAAGGCGCGAGCGCGAGGGCGGCGGUCUGGGCUAAGCAGCCCGCACGUCAAUCCAUCAGCUCGUCAACAGAGGAUUGAGCAUCA
B16: chr1:135503150:135503151:-_ENSMUSG00000090553_ENSMUST00000166915|mus_hu|FALSE|FALSE (ssRNA)
RNA: GGGAGUUCUACAGUCCGACGAUCUUCUGCAUCAUCUAAUACAAGGUUCAUAUACUCAUCAAAACCAAUGAUACAGCCUUCUAUCCGCAUAUUCACUUGCUCAUAGAGCCACACCUGAAUCCGCGAUCUCUGAAAUAAUCAUAACAACAGAGGAUUGAGCAUCA
B17: chr12:39763582:39763583:-_ENSG00000139116_ENST00000544797|hu_mus|hu_hu_hu_mus_False|48_88 (ssRNA)
RNA: GGGAGUUCUACAGUCCGACGAUCCUCUAGGAACUGGGCAUUCACUUUAAAAUCUGGAGGGGGCAGCCCGUUUUUAAUCGCUGAGGUUUUUUUUUCUUCAAUACUCUUGAACAGGUGUCUAACAGCACGAGAGAUGAUGCCCUGCAACAGAGGAUUGAGCAUCA
B18: chr18:35748043:35748044:+_ENSMUSG00000037236_ENSMUST00000166793|perfect_dup|FALSE|FALSE (ssRNA)
RNA: GGGAGUUCUACAGUCCGACGAUCUGUAUAAAAGAGUGAACACAGCUUACAGUAAAACCCUGUUUUAGGUAUCACAUAGUCUAUACCAACAGGAACAUUGGGCUGAUAUGGUCCAAUUCUAUACUCAUCUGGGAUUGUAUAGUCCAACAGAGGAUUGAGCAUCA
B19: 67934596_67934716_127_5pUTR_ENSMUSG00000079614_ENSMUST00000025421|mouse|control|control (ssRNA)
RNA: GGGAGUUCUACAGUCCGACGAUCACAUCGUGGAUGAGGUCCUUGUGGUCCGCCGCGAUGCUGCGCGCCACAAACAUGGCCGCCGCCGUCUGCCGGGCCCGCCUCCGAGAGGGCGGCGGUGCGGCCCGCAGCCCCCGGACCACCCAACAGAGGAUUGAGCAUCA
B20: chr4:98674826:98674827:-_ENSMUSG00000028556_ENSMUST00000030286|mus_mus|FALSE|FALSE (ssRNA)
RNA: GGGAGUUCUACAGUCCGACGAUCGAUCCGCAUGUCCCCAAUUCGGACCGGGAACAUGUGUUCAUCCAGAGCAUUGACAAGAGCAAAGAAUUUGUCUAGAUAAGGGUCUUGUGUAUGAAUGGAUGAAACAGCAACAACUUCAACCAACAGAGGAUUGAGCAUCA
B21: chr20:5919097:5919098:-_ENSG00000089195_ENST00000203001|hu_hu|motif|central (ssRNA)
RNA: GGGAGUUCUACAGUCCGACGAUCGUUCUUAUUCUUGGGAUAUGAAAAAACAAGUAGUAAUGGCAUUUAAAGUUUAAUUACGGACUGUAUAAUGCCUGAGAACAAAAUUCAGAGCAAUUCUCAAAAGGGUUAAGAGUCAGACUCCAACAGAGGAUUGAGCAUCA
B22: chr1:220276048:220276049:+_ENSG00000067704_ENST00000302637|hu_hu|hu_hu_hu_mus_True|78_98 (ssRNA)
RNA: GGGAGUUCUACAGUCCGACGAUCGCAAAUUGCCUGGUUGGCUGGAAUUGUCCAAGGUUGUGUGGUCCAAACUAAAACGCUAACAGGGGAUGAGGCAUCUGUAAGAGACUCCAACUUCGGAGGAGGUCUCAGGAGGGGGAAUCUCAACAGAGGAUUGAGCAUCA

What follows are binders tested against T1, UNK ZnF1-3 (human, UniProt Q9C0B0 31-174) (assay: nsRBNS (natural sequence RNA bind-n-seq); RBNS binding buffer (assumed for nsRBNS): 25 mM Tris pH 7.5, 150 mM KCl, 3 mM MgCl2, 0.01% Triton X-100, 500 ug/ml BSA, 20 U/ml SUPERase-In, 4 C; UNK is unkempt and MSI1 is Musashi-1; names of the RNAs are library labels; protein concentration not given here; high values mean tight binding).
T1 sequence: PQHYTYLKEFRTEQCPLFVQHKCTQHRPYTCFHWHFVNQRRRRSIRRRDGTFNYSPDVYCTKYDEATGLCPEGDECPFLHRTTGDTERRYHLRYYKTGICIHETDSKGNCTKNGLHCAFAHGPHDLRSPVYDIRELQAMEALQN
B1 was tested, and the binding signal was 0.664 enrichment R.
B2 showed a binding signal of 1.47 enrichment R.
For B3, the binding signal was 1.25 enrichment R.
Binder B4 has a binding signal of 1.08 enrichment R.
B5 showed a binding signal of 0.618 enrichment R.
In the case of B6, the binding signal is reported as 2.91 enrichment R.
B7 showed a binding signal of 0.776 enrichment R.
B8 was tested, and the binding signal was 0.911 enrichment R.
In the case of B9, the binding signal is reported as 0.956 enrichment R.
B10 was tested, and the binding signal was 0.548 enrichment R.
Binder B11 has a binding signal of 1.74 enrichment R.
B12 gave a binding signal of 0.731 enrichment R.
Work on B13 yielded a binding signal of 1.04 enrichment R.
B14 gave a binding signal of 0.517 enrichment R.
In the case of B15, the binding signal is reported as 0.897 enrichment R.
Work on B16 yielded a binding signal of 0.957 enrichment R.
B17 showed a binding signal of 1.91 enrichment R.
Work on B18 yielded a binding signal of 0.418 enrichment R.
B19 was tested, and the binding signal was 0.545 enrichment R.
B20 was tested, and the binding signal was 1.39 enrichment R.
B21 showed a binding signal of 0.758 enrichment R.
With B22 the binding signal was 1.45 enrichment R.
